Screen size: about 350,000 compounds; about 9,900 (2.8%) were called active. The inconclusive results got no clear call from the source; some entries with a clear call stand among them for comparison. Calls come from the whole dose curve; as a rule, active = well fitted activation curve with a large enough effect; inconclusive = small, poorly fitted or top-dose-only effect; inactive = no such curve, though single readings can be large or run the other way. Potencies of inconclusive entries are left out as doubtful fits.
Experiment: A quantitative high throughput screen for small molecules that induce DNA re-replication in MCF 10a normal breast cells. For activity, positive = re-replication: % of control where 0% means no effect. Note: nearly all actives have a fitted effect of over 50% in size.
Conditions: MCF 10A DNA re-replication, Hoechst nuclear intensity, 48 h; activity, positive = re-replication: at 46.1 µM (top of the series)
Potency is the fitted concentration of half-maximal effect; tags give direction and shape of the fitted curve.

Row | Compound | Potency | activity, positive = re-replication
1 | O=C(N/N=C/c1c[nH]c2ccccc12)c1cc(-c2cccc3ccccc23)n[nH]1 | active: 9.2 µM | –
2 | CC(CCc1ccccc1)NC(=O)c1nnc(Cc2ccc(Cl)cc2)o1 (stereo not drawn) | inactive | –
3 | Cc1cc(Nc2ccccc2)nn1C(=O)c1ccc(Br)cc1 | inconclusive [activator, single point] | –
4 | N#CCCn1cc(C(=O)Nc2ccc([N+](=O)[O-])cc2)c(-c2cc3ccccc3o2)n1 | inconclusive [activator, single point] | –
5 | O=c1c2ccccc2[nH]c(=S)n1Cc1cccnc1 | inactive | –
6 | C#CCOc1c(/C=C\c2nc(O)c([N+](=O)[O-])c(=O)[nH]2)cc(Br)cc1OC | inactive | –
7 | CC(C)=CCc1c(O)ccc(C(=O)Cc2ccccc2)c1O | active: 20.6 µM | –
8 | Cc1ccc(-n2c(SCC(=O)N3CCC(C(=O)O)CC3)nc3ccccc3c2=O)cc1C | inactive | –
9 | COc1cccc(C(=O)C2CCCN(C/C=C/c3ccccc3OC)C2)c1 (stereo not drawn) | inconclusive [activator, single point] | –
10 | Cn1c(=O)c2c(nc(Oc3ccc4c(c3)OCO4)n2Cc2ccc(Cl)cc2)n(C)c1=O | inconclusive [activator, partial curve, poor fit] | –
11 | CCCOc1ccccc1NC(=O)c1ccc([N+](=O)[O-])cc1 | inconclusive [activator, single point] | –
12 | CCS(=O)(=O)Nc1ccc(C(=O)CC2(O)C(=O)Nc3ccc(Br)cc32)cc1 (stereo not drawn) | inconclusive [activator, single point] | –
13 | c1ccc(CSc2ccc(-c3ccccn3)nn2)cc1 | inconclusive [activator, single point] | –
14 | C=CCn1c(O)c(N=NC(=O)c2cccnc2)c2cc(Br)ccc21 | inconclusive [activator, single point] | –
15 | COc1ccc(C(=O)Nc2ccc(Cl)c(Cl)c2)c(OC)n1 | inconclusive [activator, partial curve] | –
16 | CN(Cc1ccco1)c1ncnc2ccc(-c3ccc4c(ccn4C)c3)cc12 | inconclusive [activator, full curve, poor fit] | –
17 | Cn1c(=O)[nH]c(=O)c2c1nc(CN1CCN(c3cccc(Cl)c3)CC1)n2CCc1ccccc1 | inactive | –
18 | COc1ccc2ccccc2c1/C=N/NC(=O)c1nnn(-c2nonc2N)c1CN(C)C | inconclusive [activator, partial curve, poor fit] | –
19 | COc1ccc(OC)c(C(=O)N(C[C@H]2CC[C@@H]([C@@H]3CC[C@H](CO)O3)O2)C(C(=O)NC(C)(C)C)c2ccc(-c3ccccc3)cc2)c1 (stereo partly drawn) | inconclusive [activator, single point] | –
20 | COc1cccc(NC(=O)CN(C)C(=O)c2ccc3c(c2)CC(c2ccccc2)OC3=O)c1 (stereo not drawn) | inconclusive [activator, partial curve, poor fit] | –
21 | N#Cc1sc2nc(-c3cccs3)cc(-c3ccc(F)cc3)c2c1N | inconclusive [activator, single point] | –
22 | COc1ccc(CCN(C(=O)c2snc(C(N)=O)c2N)C(C)C(=O)NC2CCCCC2)cc1OC (stereo not drawn) | inactive | –

Row | Compound | Potency | activity, positive = re-replication
23 | COc1cc(/C=C2/C(=N)N3C=CSC3=NC2=O)ccc1OCCCOc1cc(C)ccc1C | inconclusive [activator, full curve] | –
24 | O=S(=O)(c1ccc(F)c(Cl)c1)N1CCN(C/C=C/c2ccccc2)CC1 | inconclusive [activator, partial curve, poor fit] | –
25 | C=CCc1ccccc1OCC(O)CN1CCN(c2ccc(OC)cc2)CC1 (stereo not drawn) | inactive | –
26 | CN1C(=O)N(C)C2(c3ccccc3)N(C)C(=O)NC12c1ccccc1 (stereo not drawn) | inactive | –
27 | COc1ccc(NC(=O)c2cccc(S(=O)(=O)N3CCc4ccccc43)c2)cn1 | inactive | –
28 | CCCC1S/C(=N/N=C/c2ccc(OC)cc2)N(Cc2ccccc2)C1=O (stereo not drawn) | inconclusive [activator, single point] | –
29 | O=C(O)c1nn(CCOc2c(Cl)cccc2Cl)c(=O)c2ccccc12 | inconclusive [activator, partial curve, poor fit] | –
30 | O=C(NC12CC3CC(CC(C3)C1)C2)c1ccc(-c2ccccc2Cl)o1 | active: 16.4 µM | –
31 | CCN=C1SC(CC(=O)Nc2ccc(C)cc2)C(=O)N1CC (stereo not drawn) | inactive | –
32 | CCOC(=O)[C@H]1NN=C(C(=O)OC)[C@@H]1c1ccccc1 | – | inconclusive: 48.2% [activator]
33 | O=C(NNc1ccccc1[N+](=O)[O-])Nc1ccc(Cl)c(Cl)c1 | inconclusive [activator, partial curve, poor fit] | –
34 | CC1CCC(NC(=O)C(NS(=O)(=O)c2cccc3nsnc23)C(C)C)CC1 (stereo not drawn) | inactive | –
35 | CCCNC(=O)CS(=O)(=O)Cc1nc(-c2ccccc2C)oc1C | inactive | –
36 | O=C(NC1CCCCC1)N1CCCC(c2nc3ccccc3[nH]2)C1 (stereo not drawn) | inactive | –
37 | CC1(C)O[C@@H]2C[C@H]3[C@@H]4C[C@H](F)C5=CC(=O)CC[C@]5(C)[C@H]4[C@@H](O)C[C@]3(C)[C@]2(C(=O)CO)O1 | inconclusive [activator, full curve, poor fit] | –
38 | COC(=O)c1sccc1N/N=C/c1cccc(Oc2ccccc2)c1 | inconclusive [activator, single point] | –
39 | Clc1cccc(Cl)c1C[n+]1ccc2ccccc2c1 | inactive | –
40 | CCOc1ccc(CN2CCN(CC3=Cc4cccc(OC)c4OC3)CC2CCO)cc1 (stereo not drawn) | inconclusive [activator, partial curve, poor fit] | –
41 | COc1cc(NC(=O)CCCSc2nc(-c3ccco3)cc(C(F)(F)F)n2)cc(OC)c1OC | inconclusive [activator, single point] | –
42 | Cc1cc(S(=O)(=O)Nc2c(C)ccc3nsnc23)ccc1F | inconclusive [activator, full curve, poor fit] | –
43 | Cn1c(=O)n(Cc2ccccc2)c2ccccc21 | inconclusive [activator, full curve, poor fit] | –

— PubChem BioAssay AID624296 (National Center for Advancing Translational Sciences (NCATS), 2012)
